From article PMC6919601, “Identification of Plasmodium dipeptidyl aminopeptidase allosteric inhibitors by high throughput screening” (PLoS ONE, 2019)
Hit rate of the full screen: of about 110,000 compounds, about 230 (0.21%) showed an effect of 50% or more. The list shows a part of the results.

What follows are compounds tested against DPAP1 (Plasmodium falciparum, UniProt Q8IIJ9) (assay: primary screen, percent inhibition; read by cleavage of a fluorogenic dipeptide substrate; higher = more effect of the substance).
Set-up: species or system P. falciparum D10 trophozoite lysates; single well
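Further: 30 min substrate incubation versus DMSO and 10 µM JCP410 controls.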

DPAP1, sequence (Q8IIJ9 whole entry, looked up): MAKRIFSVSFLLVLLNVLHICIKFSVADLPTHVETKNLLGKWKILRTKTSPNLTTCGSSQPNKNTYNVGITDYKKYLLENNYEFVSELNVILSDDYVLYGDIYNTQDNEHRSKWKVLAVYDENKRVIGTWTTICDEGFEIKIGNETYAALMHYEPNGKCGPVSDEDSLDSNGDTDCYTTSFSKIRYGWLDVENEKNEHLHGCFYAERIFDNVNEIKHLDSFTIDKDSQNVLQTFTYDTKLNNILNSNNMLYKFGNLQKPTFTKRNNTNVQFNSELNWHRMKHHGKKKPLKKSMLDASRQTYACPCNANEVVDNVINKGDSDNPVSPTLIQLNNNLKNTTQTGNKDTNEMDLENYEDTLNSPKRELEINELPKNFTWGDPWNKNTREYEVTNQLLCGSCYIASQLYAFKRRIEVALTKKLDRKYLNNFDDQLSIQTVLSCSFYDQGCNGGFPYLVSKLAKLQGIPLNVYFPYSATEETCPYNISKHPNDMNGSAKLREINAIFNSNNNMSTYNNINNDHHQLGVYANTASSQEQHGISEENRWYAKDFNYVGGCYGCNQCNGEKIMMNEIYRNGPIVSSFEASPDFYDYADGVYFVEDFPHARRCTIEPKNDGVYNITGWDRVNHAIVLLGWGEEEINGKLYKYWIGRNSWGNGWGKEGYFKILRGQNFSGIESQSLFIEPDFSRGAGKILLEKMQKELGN

Row | SMILES | % Inhibition @ 10 uM [%]
1 | CCOc1c(OC)cccc1C1CC(=O)Nc2c1c(=O)n(C)c(=O)n2C (stereo not shown) | -4.81
2 | O=C1OC(c2cccc(Br)c2)=N/C1=C\c1cccnc1 | -0.0894
3 | O=c1/c(=C\c2ccccc2)sc2nc(-c3ccccc3Cl)nn12 | 0.128
4 | CC(C)Oc1ccc(OCCSc2nc3c(N)ncnc3[nH]2)cc1 | 2.37
5 | Cc1nc2ncnn2c(C)c1CCC(=O)NCCC1=CCCCC1 | -2.25
6 | Cc1ccc(C2CC(=O)c3cnc4c(-c5ccccc5)c(C)nn4c3C2)cc1 (stereo not shown) | -9.16
7 | CC(C)C[C@H](NC(=O)OC(c1ccccc1)c1cccc(C(F)(F)F)c1)C(=O)NCC#N (stereo partly shown) | 1.71
8 | CC(=O)c1ccc(NC(=O)CC2COc3ccccc3O2)cc1 (stereo not shown) | 0.381
9 | Cc1nc2ccc(S(=O)(=O)NC(CC(C)C)C(=O)NCCC3=CCCCC3)cc2s1 (stereo not shown) | -4.97
10 | Cc1cccc(C2=N/C(=C/c3cccc(Br)c3)C(=O)O2)c1 | 2.92
11 | Nc1ccccc1Nc1nc(OC(C(F)(F)F)C(F)(F)F)nc(OC(C(F)(F)F)C(F)(F)F)n1 | 4.89
12 | CCOc1cccc(C(=O)Nc2ccc(NC(=O)c3ccccc3Br)cc2)c1 | 0.36
13 | CC1=NN(C(=O)c2ccc(OC(F)F)cc2)C(O)(C(F)(F)F)C1 (stereo not shown) | 6.37
14 | CC(C)(C)S(=O)(=O)c1ccsc1S(C)(=O)=O | -5.5
15 | CCc1ccc(Oc2nc3ccccn3c(=O)c2/C=C(\C#N)C(=O)NCCCOC)cc1 | 1.19
16 | Cc1cc(C)n(-c2nnc(C)n2/N=C/c2ccc(-c3cccc(Cl)c3)o2)n1 | 2.56
17 | Cc1ccc(-c2cc(C(F)F)n3ncc(C(=O)NCCN4CCOCC4)c3n2)cc1 | 4.08
18 | O=C(NC1CCc2ccccc21)C1CCCN(S(=O)(=O)c2ccc(Cl)cc2)C1 (stereo not shown) | -1.07
19 | CC(=O)N1N=C(c2ccc(Br)cc2)OC1c1ccc(F)cc1 (stereo not shown) | 2.96
20 | C=CCN1C(=O)C(C(=O)N2CCOCC2)C2CC1(C)Oc1ccccc12 (stereo not shown) | -5.34
21 | O=C(Cc1cccc2ccccc12)Nc1c(-c2ccccc2)nc2ccccn12 | 6.64

Row | SMILES | % Inhibition @ 10 uM [%]
22 | CCOC(=O)N1CCN(c2c(NCCN3CCCC3)c(=O)c2=O)CC1 | 0.277
23 | O=C(NCc1ccco1)c1nc(-c2ccc(-n3cccc3)cc2)no1 | -4.42
24 | COc1cccc(CNC(=O)C2CCN(S(=O)(=O)c3ccc(Br)s3)CC2)c1 | -0.668
25 | Cc1ccc(S(=O)(=O)N2CC=C(c3c(C)[nH]c4ccccc34)CC2)cc1 | 2.34
26 | O=C(Nc1ccc(F)cc1)N1CCN(c2cccc(C(F)(F)F)c2)CC1 | -3.04
27 | COc1cccc2cc(-c3nc(C)no3)c(=O)oc12 | 4.16
28 | CCOc1ccccc1N(CC(=O)Nc1ccc(OC)c(Cl)c1)S(C)(=O)=O | -2.66
29 | CC1CCN(CCCNC(=O)C2CCC(CNS(=O)(=O)c3ccccc3)CC2)CC1 (stereo not shown) | 2.35
30 | Cc1ccccc1-c1nnc2sc(NC(=O)CCc3ccccc3)nn12 | 4.46
31 | Cc1ccc(Cn2c(OCc3nc(N)nc(N4CCOCC4)n3)nc3c2c(=O)n(C)c(=O)n3C)cc1 | 3.81
32 | CC(=O)N1CCN(c2ccc(NCc3ccc(OCc4cccs4)cc3)cc2)CC1 | 4.08
33 | Cc1cccc(NC(=O)c2ccc3cc(C(=O)Nc4cccc(C)n4)ccc3c2)n1 | -3.12
34 | NC(=O)C(=O)Nc1cccc(Cl)c1Cl | -5.42
35 | CCN1C(=O)/C(=C2/CCCN2C)c2ccccc21 | -3.16
36 | CCCN(CCC)S(=O)(=O)c1ccc(-c2ccc(O)nn2)s1 | 5.07
37 | CN(C)CP(=O)(O)CCN1CCCC1=O | 3.25
38 | COc1ccc(C)cc1N(CC(=O)N1CCOCC1)S(=O)(=O)c1ccc(C)cc1 | 1.15
39 | CNc1nc(Nc2ccccc2C#N)nc(N(C)C)n1 | -2.77
40 | Oc1c(C(c2ccc(C(F)(F)F)cc2)N2CCCC2)ccc2cccnc12 (stereo not shown) | -1.52
41 | COCCNC(=O)/C(C#N)=C/c1c(Oc2cccc(C)c2C)nc2ccccn2c1=O | 2
42 | CCc1ccc(/C=C2/SC(=S)NC2=O)cc1 | -0.0494

Row | SMILES | % Inhibition @ 10 uM [%]
43 | CCN(CC)CCCNC(=O)Cn1c2ccccc2c2cnnc(O)c21 | -3.79
44 | COc1cc(-c2cc(C(=O)O)c3c(-c4ccc(C)cc4)[nH]nc3n2)cc(OC)c1O | -10
45 | O=C1NC(c2ccccc2)=NC1(Nc1ccc(Cl)cn1)C(F)(F)F (stereo not shown) | -3.33
46 | CCC1CCCCN1C(=O)Cn1c(=O)n(Cc2ccccc2)c(=O)c2c3c(sc21)CCC3 (stereo not shown) | -5.88
47 | O=C(NCCc1ccccc1)c1ccc(Cl)cc1 | 0.035
48 | CC(C)c1ccc(-n2cccc2/C=C2/C(=N)N3C=CSC3=NC2=O)cc1 | 0.208
49 | COc1ccc(-c2csc3ncn(Cc4ccccc4F)c(=O)c23)cc1 | -3.67
50 | COc1ccc(C(=O)CC2(O)C(=O)Nc3ccccc32)cc1 (stereo not shown) | 3.06
51 | CSc1oc(-c2ccccc2)nc1S(=O)(=O)c1ccc(C)cc1 | -1.29
52 | N#C/C(=C\C=C\c1ccccc1)c1nc(O)c2ccccc2n1 | 2.26
53 | COc1cc(OC)cc(-c2cc3nc(C)c(CCC(=O)NC(C)c4cccs4)c(C)n3n2)c1 (stereo not shown) | 2.93
54 | Brc1ccc2c(c1)[C@H]1OCC[C@H]1[C@@H](c1cccs1)N2 | -0.737
55 | COc1ccc(OC)c(N2C(=O)C3C(c4ccc(C)cc4)OC4(C(=O)c5ccccc5C4=O)C3C2=O)c1 (stereo not shown) | -7.89
56 | CN1CCN(CC(O)COCC2COc3ccccc3O2)CC1 (stereo not shown) | -4.21
57 | Cc1ccc(C(=O)Nc2nc(-c3nnn(-c4cc(F)ccc4F)c3C)ns2)cc1 | -1.04
58 | CC(=O)c1c(C)oc2ccc(N(C(=O)c3ccncc3)S(=O)(=O)c3cc(C)c(C)cc3C)cc12 | 5.37
59 | CCN(C(=O)c1ccc(NC(C)=O)cc1)c1ccccc1 | 4.04
60 | O=[N+]([O-])c1cccc(CN2CCCCCC2)c1 | -1.77
61 | CCOC(=O)c1cnc2ccc(Cl)cc2c1O | 3.76
